The results in this text go back to the antibiotic and cytotoxicity screens of Wong et al. (2023).

Experiment [1] concerns HSkMC (human skeletal muscle cells). In words: cytotoxicity call (relative viability < 0.9). The settings on record: 10 µM.
The subject of experiment [2] is HepG2. In words: cytotoxicity call (relative viability < 0.9). Particulars: 10 µM.
In experiment [3] the test system is S. aureus RN4220. In words: growth inhibition call (relative growth <= 0.2). The settings on record: 50 µM.

Some of the results follow.

Regarding `O=C(N1CCN(CCO)CC1)C(F)(F)F`, the cytotoxicity call in experiment [1] and in experiment [2] was “inactive” each time. The growth inhibition call in experiment [3] was “inactive”.

Regarding `O=C(N/N=C/[C@H](O)[C@H](O)[C@@H](O)[C@@H](O)CO)c1ccccc1O`, the cytotoxicity call in experiment [1] was “inactive”. The cytotoxicity call in experiment [2] is “active”. Besides, the growth inhibition call in experiment [3] was “inactive”.

`C[C@H](CO)N1C[C@H](C)[C@H](CN(C)S(=O)(=O)c2cccs2)Oc2ncc(C#Cc3ccc(F)cc3)cc2C1=O`: the cytotoxicity call in experiment [1] and in experiment [2] was “inactive” in each case. In experiment [3], the growth inhibition call is “inactive”.

With `C[C@H](O)C#Cc1cnc2c(c1)C(=O)N([C@H](C)CO)C[C@H](C)[C@H](CN(C)C(=O)Nc1ccc(C(F)(F)F)cc1)O2`, the cytotoxicity call in experiment [1] and in experiment [2] was “inactive” throughout. In addition, in experiment [3], the growth inhibition call is “inactive”.

For `COc1ccc(S(=O)(=O)N(C)C[C@@H]2Oc3ccc(N(C)C)cc3C(=O)N([C@@H](C)CO)C[C@@H]2C)cc1`, the cytotoxicity call in experiment [1] and in experiment [2] was “inactive” in each case. Moreover, the growth inhibition call in experiment [3] is “inactive”.

For the compound `CN1CCN(C(=O)C[C@@H]2CC[C@@H]3[C@H](COC[C@@H](O)CN3Cc3ccc4c(c3)OCO4)O2)CC1`, the cytotoxicity call in experiment [1] and in experiment [2] was “inactive” each time. Moreover, in experiment [3], the growth inhibition call is “inactive”.

For the compound `CNC[C@@H]1OCCCC[C@H](C)Oc2ccc(NC(=O)Nc3cccc4ccccc34)cc2C(=O)N([C@@H](C)CO)C[C@@H]1C`, the cytotoxicity call in experiment [1] and in experiment [2] was “inactive” in each case. Further, the growth inhibition call in experiment [3] is “inactive”.

For the compound `CO[C@H]1CN(C)C(=O)c2cc(NS(=O)(=O)CC(F)(F)F)ccc2OC[C@H](C)N(Cc2nccs2)C[C@@H]1C`, the cytotoxicity call in experiment [1] and in experiment [2] was “inactive” throughout. The growth inhibition call in experiment [3] is “inactive”.

Turning to `C[C@H](CO)N1C[C@H](C)[C@@H](CN(C)C(=O)Nc2ccc3c(c2)OCO3)OCCCC[C@H](C)Oc2ccc(NC(=O)C3CCCCC3)cc2C1=O`, the cytotoxicity call in experiment [1] and in experiment [2] was “inactive” throughout. Besides, the growth inhibition call in experiment [3] was “inactive”.

In the case of `CCN(CC)CCCC(C)Nc1c2ccc(Cl)cc2nc2ccc(OC)cc12.Cl.Cl` (stereo not given), in experiment [1], the cytotoxicity call was “inactive”. Also, the cytotoxicity call in experiment [2] is “active”. Moreover, the growth inhibition call in experiment [3] is “inactive”.
